# Assay results as given in a collection of fitness landscapes (doi:10.1126/science.1257360).
# The other results are listed elsewhere or left out.
# B1: PhoQ; a variant is named by its letters at X, in order, P23837 (parent)
# chain: MKKLLRLFFPLSLRVRFLLATAAVVLVLSLAYGMVALIGYSVSFDKTTFRLLRGESNLFYTLAKWENNKLHVELPENIDKQSPTMTLIYDENGQLLWAQRDVPWLMKMIQPDWLKSNGFHEIEADVNDTSLLLSGDHSIQQQLQEVREDDDDAEMTHSVAVNVYPATSRMPKLTIVVVDTIPVELKSSYMVWSWFIYVLSANLLLVIPLLWVAAWWSLRPIEALAKEVRELEEHNRELLNPATTRELTSLVRNLNRLLKSERERYDKYRTTLTDLTHSLKTPLXXLQXXLRSLRSEKMSVSDAEPVMLEQISRISQQIGYYLHRASMRGGTLLSRELHPVAPLLDNLTSALNKVYQRKGVNISLDISPEISFVGEQNDFVEVMGNVLDNACKYCLEFVEISARQTDEHLYIVVEDDGPGIPLSKREVIFDRGQRVDTLRPGQGVGLAVAREITEQYEGKIVAGESMLGGARMEVIFGRQHSAPKDE
# Variants of: B1
# Experiment: enrichment ratio after two sorts for PhoP signalling (ratio (wild type AVST 3.29)); higher = more functional
# Conditions: with PhoP (E. coli)
row,Variant,enrichment ratio
1,SYAN,≤ 0.25
2,AQLM,19.4
3,WQDG,≤ 0.25
4,RTWM,≤ 0.25
5,LSSF,≤ 0.25
6,KHAW,≤ 0.25
7,GSCV,16.6
8,HSTE,≤ 0.25
9,FFIP,≤ 0.25
10,GPLY,≤ 0.25
11,YMAF,≤ 0.25
12,VFTH,≤ 0.25
13,KNFM,≤ 0.25
14,IDHC,≤ 0.25
15,MGLN,≤ 0.25
16,GKAF,≤ 0.25
17,RFEF,≤ 0.25
18,AIRI,≤ 0.25
19,VWGW,≤ 0.25
20,MMFF,≤ 0.25
21,SHTL,2.08

row,Variant,enrichment ratio
1,SDQA,≤ 0.25
2,MALV,5.46
3,QSWY,7.32
4,FVSI,≤ 0.25
5,VGEH,≤ 0.25
6,AATI,4.81
7,YCLW,≤ 0.25
8,FVWY,≤ 0.25
9,GFNH,≤ 0.25
10,QRHY,≤ 0.25
11,VLDV,≤ 0.25
12,HQAM,≤ 0.25
13,LWVL,≤ 0.25
14,MNDL,≤ 0.25
15,GYQK,≤ 0.25
16,PIHG,≤ 0.25
17,VHHC,≤ 0.25
18,DSFW,≤ 0.25
19,LSTC,≤ 0.25
20,FQMT,≤ 0.25
21,FEII,≤ 0.25

row,Variant,enrichment ratio
1,WFPC,≤ 0.25
2,AYLM,≤ 0.25
3,ADFC,≤ 0.25
4,AIQA,≤ 0.25
5,PKEV,≤ 0.25
6,IFNG,≤ 0.25
7,NMTQ,≤ 0.25
8,THMC,8.07
9,QSSY,3.21
10,GIWG,≤ 0.25
11,DLQD,≤ 0.25
12,QETT,≤ 0.25
13,INRT,≤ 0.25
14,WDRM,≤ 0.25
15,AFRE,≤ 0.25
16,RVII,≤ 0.25
17,EHHM,≤ 0.25
18,ETIM,≤ 0.25
19,PYFM,≤ 0.25
20,DAPK,≤ 0.25
21,HDLR,≤ 0.25

row,Variant,enrichment ratio
1,VSPN,≤ 0.25
2,SKFT,≤ 0.25
3,YMCI,≤ 0.25
4,DITT,≤ 0.25
5,ETSA,≤ 0.25
6,EGAL,≤ 0.25
7,NAQH,≤ 0.25
8,RHCR,≤ 0.25
9,FCWS,≤ 0.25
10,TWYQ,≤ 0.25
11,LDDD,≤ 0.25
12,NSFK,≤ 0.25
13,LTTY,≤ 0.25
14,WESM,≤ 0.25
15,MELV,18.1
16,WHHE,≤ 0.25
17,NSLK,≤ 0.25
18,NKVY,≤ 0.25
19,SAEC,≤ 0.25
20,EREW,≤ 0.25
21,LRPC,≤ 0.25
